Source: publication PMC5537589, “A peptide-based viral inactivator inhibits Zika virus infection in pregnant mice and fetuses” (Nature Communications, 2017)

Settings: 1 or 2 weeks after the third injection

## MAVLGDTAWDFGSVGGALNSLGKGIHQIFGAAF [Z2]
  Z2-specific antibodies in sera (ELISA): below detection

Where no end group is shown, it is not given here.
